Results taken from PubChem BioAssay AID1745845 (National Center for Advancing Translational Sciences (NCATS), 2022).
Values joined by “and” are separate entries in the source; they are usually repeats but may differ in a detail not shown here. Equal entries are not always repeated. Out of some 360,000 compounds screened, about 2,600 (0.72%) were called active. Inconclusive means that the source gave no clear call. Such entries were picked first, then a sample of the others. The call rests on the fitted dose curve; in most records, active means well fitted inhibition curve with a large enough effect; inconclusive means small, poorly fitted or top-dose-only effect; inactive means no such curve, though single readings can be large or run the other way. Potencies of inconclusive entries are doubtful fits and often do not repeat.

Assay: Primary qHTS for Inhibitors of ATXN expression; further: nearly all actives have a fitted effect of over 55% in size
Conditions: HEK-293 ATXN2-luciferase reporter, luminescence, 24 h; activity change, negative = inhibition: at 57 µM (top of the series)
Summary of the method: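 qHTS (up to 57 uM final) was run with 24 h compound exposure of reporter cells at 37 °C. Each well was multiplexed: SteadyGlo luminescence measured ATXN2-luciferase expression after a fluorogenic Gly-Phe-AFC viability readout (25 uM final).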
On the % scale 0 is the no-effect control and ±100 the full control effect; potency means the concentration at half of the fitted maximal effect; tags describe the fitted curve by direction and shape.

For `O=C(Nc1ccc(CN2CCCCC2)cc1)Nc1ccc(Br)cc1Cl`, which Potency is on record?
The Potency was active: 14.1 µM.

Which Potency does the source give for `O=c1ccc(N=Nc2ccccc2)ccc1O` here?
The Potency was inconclusive: 39.8 µM [inhibitor, single point].

With `COc1ccccc1Cc1c(C(C)(C)C)nc2c3ccccc3ccn12` as the molecule, how does the Potency read?
The Potency was inconclusive: 39.8 µM [inhibitor, single point].

For `COC(=O)C1=C(C)N(Cc2ccccc2)C(=NCc2ccc(OC)cc2)N[C@H]1c1cccc(F)c1`, which Potency is on record?
Its Potency is inconclusive: 35.5 µM [inhibitor, single point].

With `CC1=C/C(=N\N=C2\NC(=O)C(CC(=O)Nc3ccccc3F)S2)CC(C)(C)C1` (stereo not given) as the molecule, how does the activity change, negative = inhibition read?
The activity change, negative = inhibition was inactive: -8.2% [at 11.3 µM].

Which Potency does the source give for `Cc1cccc(OCC(=O)Nc2ccc(Cl)c(-c3nc4ccccc4[nH]3)c2)c1` here?
Its Potency is inconclusive: 28.2 µM [inhibitor, single point].

For `S=c1[nH]nc(-c2ccccn2)n1/N=C/c1ccco1`, which Potency is on record?
Its Potency is “inactive”.

For `COc1cc(NC(=O)COc2cccc3c2OC(C)(C)C3)cc(OC)c1OC`, which Potency is on record?
Its Potency is inconclusive: 28.2 µM [inhibitor, partial curve, poor fit].

With `COc1ccc(C(=O)N2CCCc3ccccc32)cc1Br` as the molecule, how does the Potency read?
The Potency was “inactive”.

With `CCCOc1ccc(C2c3c(-c4ccccc4O)n[nH]c3C(=O)N2CCCOCC)cc1OCC` (stereo not given) as the molecule, how does the Potency read?
The Potency was inconclusive: 39.8 µM [inhibitor, single point].

For `Cc1ccccc1Nc1nnc(SCc2cc([N+](=O)[O-])cc3c2OCOC3)s1`, which Potency is on record?
Its Potency is “inactive”.

With `CC(C)n1cc(CN2CCC(C(=O)Nc3cccc(-c4cccc(Cl)c4)c3)CC2)cn1` as the molecule, how does the Potency read?
The Potency was inconclusive: 39.8 µM [inhibitor, single point].

Which Potency does the source give for `COc1cc(/C=N/NC(=O)c2cccnc2)ccc1OCC(=O)Nc1c(C)cc(C)cc1C` here?
Its Potency is “inactive”.

With `Cc1ccc2nc(-c3ccc(O)c(O)c3)cn2c1` as the molecule, how does the Potency read?
The Potency was inconclusive: 12.6 µM [inhibitor, single point].

With `Cc1ccccc1Nc1cc(C(=O)NCCc2ccc(Cl)cc2)c2ccccc2n1` as the molecule, how does the Potency read?
Its Potency is inconclusive: 39.8 µM [inhibitor, single point].

Which Potency does the source give for `CN(NC(=O)c1cccc(Cl)c1)c1nc(-c2ccccc2)nnc1C(F)(F)F` here?
Its Potency is “inactive”.

Which Potency does the source give for `COc1cc(/C=C/c2ccc3cccc(O)c3n2)cc(Br)c1OC` here?
The Potency was “inactive”.

For `COc1ccc(C(=O)Nc2ccc(C)c(S(=O)(=O)N3CCCCCC3)c2)cc1`, which Potency is on record?
The Potency was inconclusive: 8.44 µM [inhibitor, partial curve, poor fit].

Which Potency does the source give for `COc1ccc(/C=C/C(=O)c2cc(F)ccc2OC(=O)c2ccccc2)cc1OC` here?
Its Potency is “inactive”.

Which Potency does the source give for `CCOc1ccc(-c2cn3c(n2)sc2cc(C(=O)NCCCN(CC)CC)ccc23)cc1` here?
Its Potency is active: 8.91 µM.

For `Cc1ccc2[nH]c3c(=O)n(CCN4CCNCC4)cnc3c2c1`, which Potency is on record?
Its Potency is “inactive”.

With `Cc1ccc2c(c1)C(=O)C(=O)N2Cc1ccc(OC(C)C)cc1` as the molecule, how does the Potency read?
Its Potency is inconclusive: 39.8 µM [inhibitor, single point].

With `O=C(NCCCN1CCN(c2ccc(F)cc2)CC1)c1sc2ncccc2c1-n1cccc1` as the molecule, how does the Potency read?
Its Potency is inconclusive: 14.1 µM [inhibitor, partial curve, poor fit].

Which Potency does the source give for `COc1cc(/C=N/N2CCN(C3c4ccccc4-c4ccccc43)CC2)cc(OC)c1OC` here?
The Potency was “inactive”.

Which Potency does the source give for `Cc1cc(/C=C2\Sc3ccccc3N2C)cc(C)[n+]1CC1CCCO1` (stereo not given) here?
Its Potency is active: 1.19 µM.

For `CC(C)c1ccccc1NC(=O)CN(c1ccccc1)S(=O)(=O)N(C)C`, which Potency is on record?
Its Potency is “inactive”.

Which Potency does the source give for `O=C(CC1C(=O)NCCN1Cc1cccc(F)c1F)NCCCC1CCCC1` (stereo not given) here?
The Potency was “inactive”.

Which Potency does the source give for `COc1ccc(C(N)c2csc(Nc3ccc(C(=O)c4ccccc4)cc3)n2)cc1` (stereo not given) here?
The Potency was inconclusive: 39.8 µM [inhibitor, single point].

With `CC1=CSC2=NC(=O)/C(=C\c3cccn3-c3ccc([N+](=O)[O-])cc3)C(=N)N12` as the molecule, how does the Potency read?
Its Potency is “inactive”.

With `COC(=O)[C@@H]1C[C@]2(OC(=O)c3ccccc3)C=CC(=O)C[C@@H]2N1C(=O)OCc1ccccc1` as the molecule, how does the Potency read?
Its Potency is active: 14.1 µM.

For `O=C(CN(CCc1ccccc1)S(=O)(=O)c1ccccc1)NCc1ccc(Cl)cc1`, which Potency is on record?
The Potency was “inactive”.

For `CCOC(=O)c1c(-c2ccc(C)o2)csc1NC(=O)COC(=O)c1ccc(NC(N)=O)cc1`, which Potency is on record?
The Potency was inconclusive: 39.8 µM [inhibitor, single point].

Which Potency does the source give for `COc1ccc(NC(=O)CSc2c3c(nc4ccccc24)CCC3)c(OC)c1` here?
Its Potency is “inactive”.

Which Potency does the source give for `Cc1ccc(OCCn2c(NC(=O)c3ccco3)nc3ccccc32)cc1` here?
Its Potency is inconclusive: 15.8 µM [inhibitor, single point].

For `CC1(C)Cc2c(C#N)c(N3CCN(C(=O)c4ccco4)CC3)nc(Cc3ccccc3)c2CO1`, which Potency is on record?
The Potency was inconclusive: 31.6 µM [inhibitor, single point].

For `CC(=O)Nc1sc2c(c1-c1nc3ccccc3s1)CNC2`, which Potency is on record?
Its Potency is active: 21.7 µM.

Which Potency does the source give for `Cc1cc(/C=C2\SC(=Nc3ccccc3)NC2=O)c(C)n1-c1ccc(S(N)(=O)=O)cc1` here?
The Potency was inconclusive: 28.2 µM [inhibitor, partial curve, poor fit].

For `COc1ccc(OCC(=O)Nc2ccc3c(c2)N(C)C(=O)c2ccccc2S3)cc1`, which Potency is on record?
The Potency was inconclusive: 39.8 µM [inhibitor, single point].

With `NC(c1csc(Nc2ccccn2)n1)c1ccccc1Cl` (stereo not given) as the molecule, how does the Potency read?
The Potency was inconclusive: 39.8 µM [inhibitor, single point].

With `O=C(Cn1cc(S(=O)(=O)Cc2cccc(F)c2)c2ccccc21)N1CCOCC1` as the molecule, how does the Potency read?
Its Potency is “inactive”.

Which Potency does the source give for `CCCCc1c(-c2ccccc2OC)ncn1CCc1ccc(OC)cc1` here?
Its Potency is inconclusive: 22.4 µM [inhibitor, single point].

Which Potency does the source give for `Cc1ccc(C(C#N)c2ccc3c(C(F)(F)F)cc(C(F)(F)F)nc3n2)cc1` (stereo not given) here?
The Potency was inconclusive: 25.1 µM [inhibitor, partial curve].

Which Potency does the source give for `COc1ccc(C2=NOC(COc3ccc([N+](=O)[O-])cc3)C2)cc1` (stereo not given) here?
Its Potency is inconclusive: 1.06 µM [inhibitor, full curve, poor fit].

With `CC(=O)N1CCc2cc(NC(=O)C3(C)CCN3Cc3ccc(C(C)C)cc3)ccc21` (stereo not given) as the molecule, how does the Potency read?
Its Potency is inconclusive: 39.8 µM [inhibitor, single point].

For `Cc1cc(N2CCC(C(=O)NC3CCCCC3)CC2)nc(-c2ccccc2)n1`, which Potency is on record?
Its Potency is inconclusive: 22.4 µM [inhibitor, partial curve, poor fit].

With `O=C(Nc1nnc2n1CCS2)c1cc(C(F)(F)F)cc(C(F)(F)F)c1` as the molecule, how does the Potency read?
The Potency was “inactive”.

For `CCOC(=O)CCCC(=O)Nc1ncnc2c1C(c1ccccc1)c1c(ccc3ccccc13)O2` (stereo not given), which Potency is on record?
The Potency was inconclusive: 39.8 µM [inhibitor, single point].

For `COc1ccc(-c2coc3c(C(=O)Nc4cccc(C(C)=O)c4)cccc23)c(C)c1`, which Potency is on record?
Its Potency is inconclusive: 25.1 µM [inhibitor, partial curve, poor fit].

Which Potency does the source give for `CCn1nc(NC(=O)c2ccncc2)c2cc3cccc(C)c3nc21` here?
Its Potency is “inactive”.

For `COc1ccc(N(CC(=O)Nc2cc(Cl)ccc2OC)S(=O)(=O)c2c(C)[nH]c(=O)[nH]c2=O)cc1`, which Potency is on record?
Its Potency is “inactive”.

With `C=C/C(C)=C/CC1C(=C)CCC2C(C)(C(=O)O)CCCC12C` (stereo not given) as the molecule, how does the Potency read?
The Potency was “inactive”.

Which Potency does the source give for `CC(C)(C)C(=O)OCOP(=O)(COCCn1cnc2c(N)ncnc21)OCOC(=O)C(C)(C)C` here?
Its Potency is active: 3.55 µM and inconclusive: 3.06 µM [inhibitor, full curve].

Which Potency does the source give for `COc1ccc(C2CC(c3ccccc3Cl)=NN2c2ccc(S(N)(=O)=O)cc2)cc1` (stereo not given) here?
Its Potency is inconclusive: 35.5 µM [inhibitor, single point].

With `CCc1nc(C)cc(N)c1OCc1ccccc1` as the molecule, how does the Potency read?
The Potency was “inactive”.

Which Potency does the source give for `O=C(NC(=S)N1CCCCC1CO)C12CC3CC(CC(C3)C1)C2` (stereo not given) here?
Its Potency is “inactive”.

With `CN1CCN(C(=O)c2cccc(-c3cc(O)c4ncccc4c3)c2)CC1` as the molecule, how does the Potency read?
The Potency was inconclusive: 39.8 µM [inhibitor, single point].

Which Potency does the source give for `O=C1Cc2c([nH]c3ccc([N+](=O)[O-])cc23)-c2ccccc2N1` here?
Its Potency is inconclusive: 5.32 µM [inhibitor, full curve, poor fit].

Which Potency does the source give for `Cc1ccc(S(=O)(=O)CCC(=O)Nc2ccccc2N2CCCC2)cc1` here?
The Potency was “inactive”.

Which Potency does the source give for `N=C1SCC(=O)N1c1nc(-c2ccccc2)cs1` here?
The Potency was “inactive”.

Which Potency does the source give for `COc1ccc(C(CNC(=O)c2ccc(S(=O)(=O)N3CCCC3)cc2)N(C)C)cc1OC` (stereo not given) here?
Its Potency is “inactive”.

For `NC(c1csc(NC(=O)Nc2cccc(C(F)(F)F)c2)n1)C1CCCCC1` (stereo not given), which Potency is on record?
Its Potency is inconclusive: 31.6 µM [inhibitor, single point].

With `COc1ccc(NC(=O)CN2CCN(c3ccccc3C)CC2)cc1` as the molecule, how does the Potency read?
The Potency was “inactive”.

For `CC1(C)C[C@@H](O)CC2(C1)C[C@]1(C)CC(O)[C@H]2C(C)(C)C1` (stereo not given in full), which Potency is on record?
The Potency was inconclusive: 26.7 µM [inhibitor, single point].

With `C[C@]12C=CC(=O)C=C1CCC1C3CC[C@](O)(C(=O)CO)[C@@]3(C)CC3OC312` (stereo not given in full) as the molecule, how does the Potency read?
The Potency was inconclusive: 7.94 µM [inhibitor, single point].

For `Cc1cccc(N2CCN(C(=O)C3CCCN(C(=O)c4cc5sccc5n4C)C3)CC2)c1C` (stereo not given), which Potency is on record?
The Potency was inconclusive: 39.8 µM [inhibitor, single point].

Which Potency does the source give for `O=C(Nc1cc(-c2ccc(F)c(F)c2)no1)c1ccccc1F` here?
Its Potency is “inactive”.

Which Potency does the source give for `COc1ccc(C(=O)Nc2nnc(SCC(=O)NC3CC3)s2)cc1` here?
Its Potency is inconclusive: 10 µM [inhibitor, partial curve].

For `O=C1C=CC(=O)C(C2=C3C(=O)N(CCc4ccccc4)CC(=O)N3CCC2)=C1`, which Potency is on record?
The Potency was inconclusive: 39.8 µM [inhibitor, single point].

For `CC(C)(C)c1ccc(OCCC(=O)Nc2cccc(S(=O)(=O)N3CCCC3)c2)cc1`, which Potency is on record?
The Potency was inconclusive: 35.5 µM [inhibitor, partial curve, poor fit].

Which Potency does the source give for `O=C(C1CCC(CNS(=O)(=O)c2cccs2)CC1)N1CCN(c2ccc(Cl)cc2)CC1` (stereo not given) here?
Its Potency is inconclusive: 11.2 µM [inhibitor, partial curve].
